Test results from PubChem BioAssay (Tox21).
Where “and” joins values, the source holds several entries; their conditions need not be identical. Equal entries are not always repeated. Inconclusive means that the source gave no clear call. Such entries were picked first, then a sample of the others. A potency beside an inconclusive call is a rough fit, not a confirmed value. More than one record can exist for a structure, and the calls need not agree. Calls of active or inactive are those of the source. Calls come from the whole dose curve; as a rule, active = well fitted inhibition curve with a large enough effect in the repeat runs; inconclusive = weak or mixed curves; inactive = no such curve, though single readings can be large or run the other way.

molecular target: Cytochrome P450 2C19 (Homo sapiens) (UniProt P33261); assay: Cytochrome P450 Family 2 Subfamily C Member 19 (CYP2C19) small molecule antagonists: luciferase reporter qHTS assay (AID 1671197); details: P450-Glo CYP2C19 enzyme, luciferin luminescence, 1 h; series mostly up to 115 µM; note: nearly all actives have a fitted effect of over 65% in size
Procedure, shortened: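 Inhibition of CYP2C19 was scored from loss of luminescence in a P450-Glo proluciferin substrate assay, NADPH-started and run 1 h at 37C, with ketoconazole as positive control.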
Potency is the fitted concentration of half-maximal effect; tags give direction and shape of the fitted curve.

Chain of UniProt P33261 (P33261 whole entry, looked up): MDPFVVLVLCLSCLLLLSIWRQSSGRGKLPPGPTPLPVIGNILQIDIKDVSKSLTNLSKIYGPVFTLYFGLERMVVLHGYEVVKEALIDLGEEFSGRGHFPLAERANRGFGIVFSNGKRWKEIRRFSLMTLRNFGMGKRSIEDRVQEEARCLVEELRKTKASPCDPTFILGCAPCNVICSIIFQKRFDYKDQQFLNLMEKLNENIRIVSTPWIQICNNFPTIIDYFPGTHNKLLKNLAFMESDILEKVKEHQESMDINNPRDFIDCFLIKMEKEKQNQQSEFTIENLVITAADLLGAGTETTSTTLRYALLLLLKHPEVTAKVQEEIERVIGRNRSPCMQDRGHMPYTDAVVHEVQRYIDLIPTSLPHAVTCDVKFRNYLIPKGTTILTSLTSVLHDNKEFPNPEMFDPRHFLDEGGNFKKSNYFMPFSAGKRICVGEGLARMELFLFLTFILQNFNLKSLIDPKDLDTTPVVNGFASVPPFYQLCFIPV

SMILES	Potency
Nc1ccc([N+](=O)[O-])cc1	active: 3.56 µM
O=[N+]([O-])c1ccc(O)c([N+](=O)[O-])c1	inconclusive: 89.4 µM [inhibitor, single point]
ClC1=C(Cl)[C@]2(Cl)[C@@H]3[C@@H](Cl)[C@H]4O[C@H]4[C@@H]3C1(Cl)C2(Cl)Cl	inconclusive: 31.7 µM [inhibitor, partial curve, poor fit]
CN1C[C@H](C(=O)N[C@]2(C)O[C@@]3(O)[C@@H]4CCCN4C(=O)[C@H](Cc4ccccc4)N3C2=O)C=C2c3cccc4[nH]cc(c34)C[C@H]21	active: 28.4 µM and active: 18.6 µM
CCCCCCCCCC(CC)c1ccc(S(=O)(=O)O)cc1 (configuration not stated)	inconclusive: 90.3 µM [inhibitor, single point] and inconclusive: 89.3 µM [inhibitor, single point] and inconclusive: 38.9 µM [inhibitor, single point]
O=C(O)c1cc(I)cc(I)c1I	inconclusive: 96.3 µM [inhibitor, single point]
Oc1cc(Cl)c(Cl)c(Cl)c1	inactive
O=C(CCl)CCl	inconclusive: 92.6 µM [inhibitor]
c1ccc(-c2ccccc2)cc1	inactive
Cc1nnc2n1-c1sc(CCc3ccc(CC(C)C)cc3)cc1C(c1ccccc1Cl)=NC2C (configuration not stated)	inconclusive: 11 µM [inhibitor, full curve, poor fit]
CC(C)c1ccc(CO)cc1	inconclusive: 89.4 µM [inhibitor, single point] and inconclusive: 71 µM [inhibitor, single point]
O=c1oc2ccccc2c(O)c1C(CC(O)c1ccc(-c2ccc(Br)cc2)cc1)c1ccccc1 (configuration not stated)	inconclusive: 84.6 µM [inhibitor, single point] and inconclusive: 38.9 µM [inhibitor, single point]
O=C(O)c1c(Cl)ccc2cc(Cl)cnc12	inconclusive: 89.4 µM [inhibitor, single point]
Clc1ccc(C(Cl)(Cl)Cl)cc1Cl	inconclusive: 87.5 µM [inhibitor, single point]
CCCCCC[n+]1ccccc1	inactive
CCCN(CCC)CCc1c[nH]c2ccccc12	inconclusive: 88.2 µM [inhibitor, single point]
O=[N+]([O-])c1cc(C(F)(F)F)c(Cl)c([N+](=O)[O-])c1Cl	inconclusive: 89.4 µM [inhibitor, single point]
O=S1(=O)OC(c2cc(Br)c(O)c(Br)c2)(c2cc(Br)c(O)c(Br)c2)c2ccccc21	active: 73 µM
CC(C)(C)CC(C)(C)c1ccc(O)cc1	inconclusive: 20 µM [inhibitor]
CCC(C)(C)c1ccc(O)cc1	inactive
COc1ccc(C=O)cc1O	inconclusive: 89.9 µM [inhibitor, single point]
C(=NC1CCCCC1)=NC1CCCCC1	inconclusive: 71.5 µM [inhibitor, single point] and inconclusive: 89.4 µM [inhibitor, single point]
CN1C(=O)[C@@H](NC(=O)c2cc3ccccc3[nH]2)N=C(c2ccccc2)c2ccccc21	inactive
Sc1ccccc1	inconclusive: 79.6 µM [inhibitor] and inconclusive: 89.4 µM [inhibitor, single point]
CC(C)c1ccc(OP(=O)(Oc2ccc(C(C)C)cc2)Oc2ccc(C(C)C)cc2)cc1	active: 3.58 µM and active: 3.56 µM and active: 2.83 µM
C[C@H]1CCCC(=O)CCC/C=C/c2cc(O)cc(O)c2C(=O)O1	active: 17.2 µM and active: 29.2 µM
CCN(CC)CCc1c[nH]c2ccccc12	inactive
CCCCCCCCCCn1cc[n+](C)c1	inconclusive: 71.3 µM [inhibitor, single point] and inconclusive: 79.6 µM [inhibitor, single point]
CN(C)S(=O)(=O)N(SC(F)(Cl)Cl)c1ccccc1	active: 11.2 µM
C[C@H](CN1CCOCC1)C(C(=O)N1CCCC1)(c1ccccc1)c1ccccc1	active: 96.9 µM

molecular target: Cytochrome P450 2C9 (Homo sapiens) (UniProt P11712); assay: Cytochrome P450 Family 2 Subfamily C Member 9 (CYP2C9) small molecule antagonists: luciferase reporter qHTS assay (AID 1671198); details: P450-Glo CYP2C9 enzyme assay, luciferin luminescence; series mostly up to 115 µM; note: nearly all actives have a fitted effect of over 50% in size
Procedure, shortened: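 Enzyme-substrate mix preincubated with compound 10 min at room temperature; reaction started with NADPH regeneration solution, 1 h 37C. Luminescent luciferin product read after 20 min detection reagent.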

Chain of UniProt P11712 (P11712 whole entry, looked up): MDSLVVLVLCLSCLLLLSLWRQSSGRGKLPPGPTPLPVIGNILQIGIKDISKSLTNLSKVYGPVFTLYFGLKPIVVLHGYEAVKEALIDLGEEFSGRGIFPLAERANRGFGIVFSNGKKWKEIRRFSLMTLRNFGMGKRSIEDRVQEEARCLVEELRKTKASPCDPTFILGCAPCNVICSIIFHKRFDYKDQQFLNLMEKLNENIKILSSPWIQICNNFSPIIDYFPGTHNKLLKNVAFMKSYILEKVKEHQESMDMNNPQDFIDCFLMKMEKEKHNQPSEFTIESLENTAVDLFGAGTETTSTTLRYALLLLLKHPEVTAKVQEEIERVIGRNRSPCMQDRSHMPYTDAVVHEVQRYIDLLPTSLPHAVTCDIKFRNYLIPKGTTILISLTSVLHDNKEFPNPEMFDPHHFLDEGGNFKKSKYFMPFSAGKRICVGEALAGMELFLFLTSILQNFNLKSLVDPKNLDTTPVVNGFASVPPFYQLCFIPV

SMILES	Potency
CCCCCCCCCCCCOS(=O)(=O)O	inconclusive: 79.7 µM [inhibitor, partial curve] and inconclusive: 79.6 µM [inhibitor, partial curve, poor fit]
[F][Sn]([c]1ccccc1)([c]1ccccc1)[c]1ccccc1	active: 2 µM
CCOP(=S)(OCC)SCSCC	active: 35.6 µM
NC(=S)c1c(Cl)cccc1Cl	inconclusive: 44.8 µM [inhibitor, partial curve, poor fit]
O=C(N[C@H]1CN2CCC1CC2)c1cc2ccoc2cn1	inconclusive: 89.4 µM [inhibitor, single point]
O=[N+]([O-])c1ccc(Cl)c([N+](=O)[O-])c1	inconclusive: 80.9 µM [inhibitor, partial curve] and inconclusive: 56.4 µM [inhibitor, partial curve]
N#Cc1sc2c(=O)c3ccccc3c(=O)c=2sc1C#N	active: 3.17 µM
